The source gives many values for each of these; only a part stands here.
Assays:
[1] = xn = mol fraction of the nth substance listed

O=C(CO)[C@@H](O)[C@H](O)[C@H](O)CO + O
[1], 100 kPa, x1 = 0.0009
Details	viscosity [mPa·s]
298.15 K	0.9294
308.15 K	0.7522
313.15 K	0.6838
318.15 K	0.6246

CCNc1ccccc1 + COC(C)(C)C
viscosity [mPa·s], [1], 101 kPa
Details	318.15 K	323.15 K
x1 = 0.0583	–	0.302
x1 = 0.1047	–	0.323
x1 = 0.1493	–	0.344
x1 = 0.2021	–	0.371
x1 = 0.2544	–	0.4
x1 = 0.3064	0.465	0.43
x1 = 0.3508	0.496	0.458
x1 = 0.4031	0.535	0.494
x1 = 0.45	0.572	0.527
x1 = 0.5021	0.617	0.568
x1 = 0.5506	0.662	0.609
x1 = 0.6036	0.715	0.656
x1 = 0.6519	0.767	0.703
x1 = 0.701	0.824	0.755
x1 = 0.7521	0.888	0.812
x1 = 0.7985	0.95	0.868
x1 = 0.8501	1.023	0.933
x1 = 0.9006	1.1	1.002
x1 = 0.949	1.178	1.071

CCCCn1cc[n+](C)c1.CCOS(=O)(=O)[O-]
Details	viscosity [mPa·s]
298.15 K, 100 kPa	255.2

CCn1cc[n+](C)c1.F[B-](F)(F)F
Details	viscosity [mPa·s]
293.15 K, 100 kPa	34.6
298.15 K, 101 kPa	35.8
299.15 K, 101 kPa	34.52
301.15 K, 101 kPa	32.15
302.15 K, 101 kPa	31.06
303.15 K, 100 kPa	24.2
304.15 K, 101 kPa	29.01
305.15 K, 101 kPa	28.13
307.15 K, 101 kPa	26.38
308.15 K, 101 kPa	25.54
313.15 K, 100 kPa	17.8
323.15 K, 100 kPa	13.5

CC(O)CN(C)C (stereo not drawn) + O
[1], 323.15 K, 101 kPa
Details	viscosity [mPa·s]
x1 = 0.4013	2.496
x1 = 0.4578	2.245
x1 = 0.5049	2.045
x1 = 0.6009	1.683
x1 = 0.7054	1.372
x1 = 0.7955	1.158
x1 = 0.8905	0.983
x1 = 0.9564	0.883
